Here are results for one molecule from patent CN112794906A (HEFEI HANKEMAB BIOTECHNOLOGY CO LTD, dated 2021).

Test [1] deals with T1, 人4-1BB on CHO-K1-hu4-1BB cells (human, UniProt Q07011 24-255).
T1 construct: whole, on cells
Kind of test: flow cytometry on CHO-K1-hu4-1BB cells, goat anti-human FITC. (A flow cytometer gives signals particle by particle.)

The target of test [2] is T2, 人4-1BB (human 4-1BB, SEQ ID No.3), coated in ELISA (human, UniProt Q07011 24-186).
T2 construct: also called CD137; TNFRSF9
Put plainly: summary of the experiments (ELISA, FACS). (In general: An ELISA detects its analyte on a solid surface through an enzyme-linked reagent.)

B1: scFvB60103 (Fc fusion)
scFv: QVQLQESGPGLVKPSETLSITCTVSGSSLTSYGVHWVRQPPGKGLEGLGVIWPGGSTNYNSALMSRLTISKDNSKSQVSLKMSSLTAADTAMYYCARVTGTWYFDVWGQGTTVTVSSGGGGSGGGGSGGGGSDIQMTQSPSSLSASLGDRVTISCSASQGISNYLNWYQQKPDGTVKLLIYYTSTLHSGVPSRFSGSGSGTDFTLTISSLQPEDVATYYCQQYSKLPWTFGGGTKLEIKDKRV[human IgG4 Fc with S228P (EU numbers) cut from this listing]
notes: Humanised from hybridoma antibody 37G10F4; scFv-Fc (human IgG4) expressed in Expi293 cells; also called scFv-Fc(人IgG4)形式的抗原结合片段; 单链抗体的融合抗体
B1: the binding result in test [1] and in test [2] was “binds” each time.
